Data on 54 compounds can be found in article PMC4336329 (PLoS ONE, 2015).

Each structure is given as a SMILES string. The campaign covered roughly 310,000 compounds. About 14,000 (4.5%) showed an effect of 50% or more. Effects have a minus sign here. The list shows a part of the results.
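Note: peak tail current of the secondary pulse compared with the same well before compound.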

For the assay, the target named is human ether-à-go-go-related gene (hERG) potassium channel (human, UniProt Q12809). Kind of assay: primary screen, population patch clamp on CHO cells stably expressing hERG.
human ether-à-go-go-related gene (hERG) potassium channel, sequence (Q12809 whole entry, looked up): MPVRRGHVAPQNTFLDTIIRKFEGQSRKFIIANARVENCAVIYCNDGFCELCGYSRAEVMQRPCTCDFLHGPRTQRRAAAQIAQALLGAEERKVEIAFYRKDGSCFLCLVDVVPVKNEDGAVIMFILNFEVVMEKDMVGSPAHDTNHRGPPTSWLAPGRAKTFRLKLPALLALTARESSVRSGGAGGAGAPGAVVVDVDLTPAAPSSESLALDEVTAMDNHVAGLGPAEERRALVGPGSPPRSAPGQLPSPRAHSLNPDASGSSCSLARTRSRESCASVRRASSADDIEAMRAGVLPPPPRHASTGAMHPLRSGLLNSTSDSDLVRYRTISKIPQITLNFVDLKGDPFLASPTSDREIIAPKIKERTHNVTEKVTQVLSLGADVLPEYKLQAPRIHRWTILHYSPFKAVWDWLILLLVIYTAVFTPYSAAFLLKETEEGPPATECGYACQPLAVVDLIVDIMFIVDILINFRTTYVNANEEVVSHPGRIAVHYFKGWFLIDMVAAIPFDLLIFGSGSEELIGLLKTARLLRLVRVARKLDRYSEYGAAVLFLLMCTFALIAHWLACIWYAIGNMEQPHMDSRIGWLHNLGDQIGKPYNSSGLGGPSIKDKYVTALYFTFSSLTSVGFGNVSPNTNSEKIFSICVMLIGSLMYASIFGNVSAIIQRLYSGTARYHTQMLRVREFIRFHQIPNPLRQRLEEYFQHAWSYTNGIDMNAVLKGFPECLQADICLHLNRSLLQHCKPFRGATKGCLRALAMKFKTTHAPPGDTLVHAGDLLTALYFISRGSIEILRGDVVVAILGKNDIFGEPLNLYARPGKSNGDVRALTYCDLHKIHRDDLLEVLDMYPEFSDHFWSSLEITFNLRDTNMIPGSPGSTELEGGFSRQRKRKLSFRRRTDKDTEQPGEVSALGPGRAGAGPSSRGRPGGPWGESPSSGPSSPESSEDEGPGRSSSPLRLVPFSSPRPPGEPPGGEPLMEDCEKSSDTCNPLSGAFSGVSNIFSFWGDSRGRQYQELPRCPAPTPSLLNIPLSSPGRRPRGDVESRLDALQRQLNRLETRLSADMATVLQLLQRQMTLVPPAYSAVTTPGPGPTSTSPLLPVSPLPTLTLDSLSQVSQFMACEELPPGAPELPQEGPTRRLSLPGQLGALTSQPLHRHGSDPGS
Regarding `COc1ccc(C)cc1NC(=O)C(NCC1CCCO1)c1ccccc1` (stereo not drawn), the “hERG current change (%, negative = inhibition) at 10uM” value is reported as -51.4%.

`COCC(=O)Nc1nc2n(n1)C(c1ccccc1Cl)CC(c1ccc(OC)cc1)N2` (stereo not drawn): the “hERG current change (%, negative = inhibition) at 10uM” value is given as -18.6%.

As for `O=c1cc(CSc2nnc(-c3ccco3)o2)c2ccccc2[nH]1`, the “hERG current change (%, negative = inhibition) at 10uM” value is reported as -7.54%.

Regarding `Cc1nc2c(-c3ccccc3)c(C)nn2c(C)c1CCC(=O)O`, the “hERG current change (%, negative = inhibition) at 10uM” value is -10.6%.

Turning to `CSCCC(NC(=O)c1cccc(S(=O)(=O)N2CCOCC2)c1)c1nc2ccccc2[nH]1` (stereo not drawn), the “hERG current change (%, negative = inhibition) at 10uM” value was -23.2%.

For the compound `COCCN1C(=O)/C(=C/c2ccc(OCc3ccc(C(=O)O)cc3)c(OC)c2)SC1=Nc1ccccc1`, the “hERG current change (%, negative = inhibition) at 10uM” value amounted to 7.58%.

Take `CC(=NCCN1CCNCC1)C1=C(O)CC(C)(C)CC1=O`: the “hERG current change (%, negative = inhibition) at 10uM” value came to 1.32%.

Turning to `COCCNC(=S)N(Cc1cccnc1)Cc1ccc(OC)c(OC)c1.O=C(O)C(=O)O`, the “hERG current change (%, negative = inhibition) at 10uM” value was 9.52%.

For `CCc1noc(C)c1C(=O)NNC(=O)c1ccccc1F`, the “hERG current change (%, negative = inhibition) at 10uM” value is recorded as 21%.

Turning to `Cc1cc(C(=O)CSc2nnc(-c3ccccc3)n2-c2ccccc2)c(C)n1-c1ncn[nH]1`, the “hERG current change (%, negative = inhibition) at 10uM” value is listed as 17.7%.

For `c1ccc(-c2onc(-c3ccco3)c2-c2ccc3[nH]ccc3c2)cc1`, the “hERG current change (%, negative = inhibition) at 10uM” value is 19.4%.

Take `CCn1cc(C(=O)NCC(OC)OC)c(=O)c2cc(S(=O)(=O)N3CCOCC3)ccc21`: the “hERG current change (%, negative = inhibition) at 10uM” value came to 9.8%.

Regarding `COc1ccc(N(Cc2ccccc2)C(=O)CSc2nnc(Cn3nnc4ccccc43)o2)cc1`, the “hERG current change (%, negative = inhibition) at 10uM” value was -12.3%.

`O=C(C[n+]1ccc2ccccc2c1)Nc1cc(C(F)(F)F)ccc1Cl.[Cl-]`: the “hERG current change (%, negative = inhibition) at 10uM” value is recorded as -44%.

Consider `Cn1c(/N=C/c2ccc3c(c2)OCO3)nc2ccccc21`, for which the “hERG current change (%, negative = inhibition) at 10uM” value is -21%.

As to `COc1cc(C)cc(CN2CC=C(c3ccccc3)CC2)c1O`, the “hERG current change (%, negative = inhibition) at 10uM” value is listed as -51.4%.

In the case of `O=C(NN(C(=O)C1CC1)c1nc2ccccc2s1)C1CC1`, the “hERG current change (%, negative = inhibition) at 10uM” value is 2.43%.

With `CCOc1ncccc1C(=O)Nc1c(C)n(C)n(-c2ccccc2)c1=O`, the “hERG current change (%, negative = inhibition) at 10uM” value is recorded as 8.24%.

For the compound `CCn1c(SCC(=O)Nc2sc3c(c2C(N)=O)CCC(C)C3)nnc1-c1ccco1` (stereo not drawn), the “hERG current change (%, negative = inhibition) at 10uM” value is recorded as -11.2%.

Turning to `CN=C(SCc1cc2c(cc1Cl)OCO2)c1c(O)n(C)c(=O)n(C)c1=O`, the “hERG current change (%, negative = inhibition) at 10uM” value came out at 8.63%.

Regarding `Cc1nn(CCCC(=O)Nc2nccs2)c(C)c1[N+](=O)[O-]`, the “hERG current change (%, negative = inhibition) at 10uM” value is -5.37%.

`COC(=O)c1ccc(-n2nnnc2SC)cc1`: the “hERG current change (%, negative = inhibition) at 10uM” value was 3.46%.

`CCc1cc(Br)ccc1NC(=S)NCCc1ccccc1`: the “hERG current change (%, negative = inhibition) at 10uM” value was 3.97%.

Take `CCn1cc(C2=NC(c3ccccc3)CO2)c2ccccc21` (stereo not drawn): the “hERG current change (%, negative = inhibition) at 10uM” value is recorded as -1.46%.

As for `Cc1cccc(N2CCN(C(=O)c3ccc(N4CCCC4=O)cc3)CC2C)c1` (stereo not drawn), the “hERG current change (%, negative = inhibition) at 10uM” value is given as -7.58%.

For `COc1ccc(/C=C/C(=O)Oc2cccc(/C=N/NC(=O)COc3c(C)cccc3C)c2)cc1`, the “hERG current change (%, negative = inhibition) at 10uM” value is given as 11.8%.

Take `Cc1cc(S(=O)(=O)NCC(C)C)ccc1OCC(=O)NCC1CCCO1` (stereo not drawn): the “hERG current change (%, negative = inhibition) at 10uM” value came to 8.03%.

Regarding `CC(=O)Nc1nc(-c2ccc([N+](=O)[O-])cc2)cs1`, the “hERG current change (%, negative = inhibition) at 10uM” value worked out at 4.04%.

As for `C=CCNc1nnc(SCC(=O)N2CCC(C(N)=O)CC2)s1`, the “hERG current change (%, negative = inhibition) at 10uM” value was -7.48%.

For `Cc1[nH]c2ccccc2c1C(=O)COC(=O)c1ccc[n+]([O-])c1`, the “hERG current change (%, negative = inhibition) at 10uM” value is given as 0.499%.

Regarding `Cc1cc(C)c(NC(=O)c2ccc(CNS(=O)(=O)c3cc(C(F)(F)F)ccc3Cl)cc2)c(C)c1`, the “hERG current change (%, negative = inhibition) at 10uM” value is reported as -3.61%.

Take `Cc1cc(C)n2nc(SC(C)C(=O)N(C)c3ccccc3)nc2n1` (stereo not drawn): the “hERG current change (%, negative = inhibition) at 10uM” value amounted to 11.5%.

`O=C1CCN(Cc2ccc(Br)cc2)CCN1CCO`: the “hERG current change (%, negative = inhibition) at 10uM” value is -1.08%.

For the compound `COc1cc(NS(=O)(=O)c2ccc(Cl)cc2)c(C(=O)O)cc1OC`, the “hERG current change (%, negative = inhibition) at 10uM” value is reported as -4.44%.

Regarding `Cc1cc2c(c(SCC(=O)NCc3ccccc3Cl)n1)C(=O)OC2`, the “hERG current change (%, negative = inhibition) at 10uM” value was found to be 12.5%.

With `C[C@@H](NC(=O)c1nc[nH]c1C(=O)N(C)Cc1ccccc1)c1ccccc1`, the “hERG current change (%, negative = inhibition) at 10uM” value is on record as 0.0989%.

With `N/C(CS(=O)(=O)c1ccccn1)=N\OC(=O)c1ccc(Cl)cc1`, the “hERG current change (%, negative = inhibition) at 10uM” value is reported as -14.3%.

Take `Cc1ccc(NC(=O)Cn2c(=O)oc3ccccc32)cc1`: the “hERG current change (%, negative = inhibition) at 10uM” value worked out at 14.3%.

Consider `CCOc1cc(C)c(Cl)cc1S(=O)(=O)n1ccnc1`, for which the “hERG current change (%, negative = inhibition) at 10uM” value turned out to be 4.53%.

As to `COc1cc(S(=O)(=O)N(Cc2ccc(C)cc2)Cc2ccco2)ccc1-n1cnnn1`, the “hERG current change (%, negative = inhibition) at 10uM” value was 2.53%.

Turning to `COc1ccc(C)cc1NC(=O)CSc1nnc(-c2ccc(OC)c(OC)c2)n1N`, the “hERG current change (%, negative = inhibition) at 10uM” value is listed as -19.3%.

Turning to `CCOC(=O)C1=C(N)OC2=C(C(=O)CCC2)C1c1ccco1` (stereo not drawn), the “hERG current change (%, negative = inhibition) at 10uM” value is -3.24%.

For `CCN(CC(=O)Nc1cccc(OC)c1)c1ncnc2sc(C)c(C)c12`, the “hERG current change (%, negative = inhibition) at 10uM” value is listed as -8.22%.

On to `CC(C)=CCc1cc2c(=O)c3c(O)c4c(cc3oc2c(O)c1O)OC(C)C4(C)C` (stereo not drawn), for which the “hERG current change (%, negative = inhibition) at 10uM” value is reported as -2.84%.

As to `O=C(NCCN1CCC(Cc2ccccc2)CC1)C1CCN(S(=O)(=O)N2CCC3(CC2)OCCO3)CC1`, the “hERG current change (%, negative = inhibition) at 10uM” value is -46.8%.

Consider `CC(C)[C@H](NC(=O)N1CC(=O)Nc2ccccc21)C(=O)N[C@@H](Cc1c[nH]c2ccccc12)C(=O)O`, for which the “hERG current change (%, negative = inhibition) at 10uM” value was found to be 7.52%.

Take `CC(=O)c1c(C)[nH]c(C(=O)NCc2ccccc2F)c1C`: the “hERG current change (%, negative = inhibition) at 10uM” value is reported as 6.84%.

Consider `CC(=O)c1ccc(NC(=O)Cn2c3ccccc3c3nc(=O)cc(C)n32)cc1`, for which the “hERG current change (%, negative = inhibition) at 10uM” value was -14.2%.

Turning to `CC(C)(C)c1ccc(-n2ncc3c2CCCC3NC(=O)c2cnccn2)cc1` (stereo not drawn), the “hERG current change (%, negative = inhibition) at 10uM” value was determined as 6.65%.

Turning to `Cc1ccc(Nc2ncnc3c2cnn3C)cc1`, the “hERG current change (%, negative = inhibition) at 10uM” value is -42.8%.

Regarding `CC(=O)OCC[N+](C)(C)C.[O-][Cl+3]([O-])([O-])[O-]`, the “hERG current change (%, negative = inhibition) at 10uM” value came out at 8.09%.

Consider `Cc1ccc(SCC2=NN(c3nc(C)cc(C)n3)C(=O)C2)cc1`, for which the “hERG current change (%, negative = inhibition) at 10uM” value was -16%.

As for `Cc1nn(Cc2ccccc2)c(C)c1C(=O)NCCN1C(=O)S/C(=C\c2ccc(F)cc2)C1=O`, the “hERG current change (%, negative = inhibition) at 10uM” value is listed as -5.67%.

On to `CC(C)(C)NC(=O)C(c1cccnc1)N(C(=O)c1ccc(Cl)nc1)C1CCCC1` (stereo not drawn), for which the “hERG current change (%, negative = inhibition) at 10uM” value came out at 2.66%.
